Each structure is given as a SMILES string. Among all 50,000 compounds or so, about 800 (1.6%) showed an effect of 50% or more. The list shows a part of the results.

The target in the assay is Bcl-2-like protein 10 (Homo sapiens) (UniProt Q9HD36). In words: Phenotype converters, Bcl-B/TR3 peptide binding displacement, primary biochemical FP (AID 1240).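 Further: 0% = Bcl-B with tracer peptide and DMSO and 100% = tracer peptide lacking Bcl-B.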 To be noted: GST-Bcl-B / FITC-TR3 peptide fluorescence polarization; stronger effect = higher value; compound at 3.75 mg/L.
Sequence of UniProt Q9HD36 (Q9HD36 whole entry, looked up): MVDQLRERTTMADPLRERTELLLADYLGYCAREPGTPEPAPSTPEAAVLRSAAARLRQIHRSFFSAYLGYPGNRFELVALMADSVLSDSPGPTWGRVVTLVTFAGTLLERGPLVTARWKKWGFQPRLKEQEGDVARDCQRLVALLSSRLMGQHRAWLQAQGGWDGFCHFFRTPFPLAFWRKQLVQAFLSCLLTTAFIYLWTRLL
Take `CCOc1ccc(C(=O)Nc2ccc3oc(-c4ccccc4Br)nc3c2)cc1`: the displacement is 14%.

As for `CC(=O)Nc1ccccc1NC(=O)c1cccc([N+](=O)[O-])c1`, the displacement is -11.5%.

For `O=C(Cc1ccccc1)Nc1nc(-c2ccccc2)cs1`, the displacement was found to be 2.1%.

Regarding `CCOC(=O)C1=C(O)/C(=C/c2ccco2)SC1=Nc1cccc(Cl)c1`, the displacement is -0.6%.

On to `O=C(Nc1cccc(NC(=O)c2cccc3ccccc23)c1)c1cccc(Cl)c1`, for which the displacement stood at 2%.

In the case of `COc1ccc(NC(=O)c2ccc(OC)c(OC)c2)cc1OC`, the displacement was -8.9%.

`COc1cc(C=C2C(=O)NC(=S)NC2=O)cc(Cl)c1OCCOc1ccccc1C`: the displacement is -4.5%.

`COc1ccccc1N1CCN(S(=O)(=O)c2ccc3ccccc3c2)CC1`: the displacement stood at 0.5%.

Regarding `COc1ccc(Cl)cc1C(=O)Nc1cc(C)cc(C)n1`, the displacement worked out at 4.7%.

`O=C(Nc1cccc(NS(=O)(=O)c2ccccc2)c1)c1ccccc1Cl`: the displacement is -5.1%.

As to `CC(=O)N1CC(c2ccccc2)CC1=O` (configuration not stated), the displacement was 8.7%.

With `CCOC(=O)C1=C(O)/C(=C/c2ccc(O)c(OCC)c2)SC1=Nc1ccccc1`, the displacement is -47.6%.

For the molecule `O=C(CCc1ccccc1)Nc1cc(C(F)(F)F)ccc1Cl`, the displacement came out at 11.6%.

With `CC(C)c1ccc(N2C(=O)NC(=O)/C(=C/c3cc4c(cc3Br)OCO4)C2=O)cc1`, the displacement is -11.1%.

For the molecule `CCCOc1ccc(/C=N/N2CCN(Cc3cccc4ccccc34)CC2)cc1`, the displacement worked out at 7.9%.

`CN(C)/C=C1\N=C(c2cccc(F)c2)OC1=O`: the displacement is -4.4%.

With `COc1ccc(OC)c(NC(=O)CN(c2ccc(C(C)C)cc2)S(=O)(=O)c2ccccc2)c1`, the displacement is 1.7%.

As for `O=[N+]([O-])c1cccc(Cl)c1C1NN=C(c2ccccc2)S1` (configuration not stated), the displacement was 7%.

Turning to `CC1(C)Cc2nc(NC(=S)Nc3ccccc3)c(C(=O)O)cc2CO1`, the displacement is -4.3%.

`Cc1ccc(S(=O)(=O)NCC(c2ccccc2)N2CCOCC2)cc1` (configuration not stated): the displacement is -3.8%.

On to `CCOC(=O)Cn1c(=N)n(Cc2ccc(C)cc2)c2ccccc21`, for which the displacement was -5.2%.

As for `COc1ccc(NC(=O)C(=O)NCCCO)cc1Cl`, the displacement is 12.1%.

`COc1ccc(/C=C2\C(=O)NC(=O)N(c3ccc(C)c(C)c3)C2=O)cc1Br`: the displacement is -8.9%.

For `O=C(c1ccc(-c2ccccc2)cc1)N1CCN(C2CCCC2)CC1`, the displacement is -7.8%.

Regarding `CCOC(=O)C1=C(C)N=c2s/c(=C\c3ccc(Cl)cc3)c(=O)n2C1c1ccc2c(c1)OCO2` (configuration not stated), the displacement amounted to 121%.

Turning to `CCCN1CCC(=NNC(=O)c2ccccc2O)CC1`, the displacement amounted to 7.1%.

For the molecule `COc1ccc(OC)c(/C=N\NC(=O)COc2ccc(Cl)cc2Br)c1`, the displacement is 9.5%.

As to `Cc1cc(NC(=O)c2ccc3ccccc3c2)ccc1NC(=O)c1ccccc1`, the displacement was -10.3%.

As to `O=S(=O)(c1ccc2ccccc2c1)N1CCc2ccccc2C1`, the displacement was -1.3%.

As for `CC1=CC(C)C2C(=O)N(Cc3ccc[n+](C)c3)C(=O)C2C1` (configuration not stated), the displacement is -14.6%.

Regarding `COc1ccc(C(=O)N2CCN(c3ccccc3)CC2)cc1OC`, the displacement is -5.3%.

Turning to `NC(=O)c1ccccc1NC(=O)c1ccc2c(c1)OCO2`, the displacement amounted to 5.1%.

`CCN(CC)c1ccc(/C=C2\C(=O)NC(=O)N(c3cccc(C)c3)C2=O)c(OC)c1`: the displacement was determined as 15.2%.

`Cc1occc1C(=O)Nc1nc2ccc(S(C)(=O)=O)cc2s1`: the displacement was -1.3%.

Regarding `O=C(NCCOC(=O)c1ccc(S(=O)(=O)N2CCOCC2)cc1)c1cccnc1`, the displacement was 10.3%.

`CCc1ccccc1NC(=O)CN(c1ccc(OC)cc1OC)S(C)(=O)=O`: the displacement was 2%.

With `N#Cc1cc2c(nc1SCc1ccc(Br)cc1)CCCC2`, the displacement is -4.4%.

`COc1ccccc1Cc1noc(-c2ccc(F)cc2)n1`: the displacement was -7.7%.

With `CCOc1ccc(N2Cc3ccc(C(=O)NN)cc3C2)cc1`, the displacement was -27.8%.

Take `Cc1ccc(C(=O)Nc2cccc(O)c2)o1`: the displacement was -10.7%.

In the case of `CC12CN3CC(C)(CN(C1)C3(C)c1ccccc1)C2=O` (configuration not stated), the displacement was -9.1%.

Consider `CCC1C(=O)N(c2nc(-c3ccc(I)cc3)cs2)N=C1C` (configuration not stated), for which the displacement was -16.9%.

For `COc1ccc(/C=N/n2c(C)nnc2C)c(OC)c1`, the displacement was -6%.

As to `CC(C)(C)N=C1c2nn(Cc3ccccc3)nc2C(=NC(C)(C)C)c2nn(Cc3ccccc3)nc21`, the displacement is 1.4%.

Turning to `Cc1cc(C)nc(N/N=C/c2ccc(N3CCOCC3)cc2)n1`, the displacement is -23.9%.

`COc1ccc(-c2cc(C(=O)N3CCC(Cc4ccccc4)CC3)c3ccccc3n2)c(OC)c1`: the displacement is -62.7%.

In the case of `COc1ccc(NC(=O)/C=C/c2cccc([N+](=O)[O-])c2)cc1`, the displacement is -2.4%.

Take `C=CCc1ccccc1OCCOc1ccc(/C=c2\sc3nc4ccccc4n3c2=O)cc1OCC`: the displacement worked out at 100%.

Turning to `O=c1oc(-c2ccccc2[N+](=O)[O-])nc2ccccc12`, the displacement was found to be 3.8%.

Take `CN(C)c1ccc(C2Nc3ccccc3NC3=C2C(=O)CC(c2ccccc2)C3)cc1` (configuration not stated): the displacement stood at 2.9%.

For `C=CCN(CC=C)C(=O)c1cc(-c2ccc(C)s2)nc2ccccc12`, the displacement is -7.2%.

`O=C(O)c1ccccc1NC1=C(Cl)C(=O)N(c2cccc(Cl)c2)C1=O`: the displacement is 18.5%.

On to `O=C(c1sc2cc(F)ccc2c1Cl)N1CCc2ccccc2C1`, for which the displacement is 1%.

Turning to `Oc1cccc(C=Nc2cccc(C(F)(F)F)c2)c1`, the displacement came out at 0.7%.

In the case of `CCC(Oc1ccccc1)C(=O)Nc1c(F)c(F)c(F)c(F)c1F` (configuration not stated), the displacement is -2.2%.

Regarding `COC(=O)C1=C(C)NC(C)=C(C(=O)OC)C1c1cn(-c2ccccc2)nc1-c1ccc(OC)c(Cl)c1`, the displacement is 10.8%.

Consider `Cc1ccc(S(=O)(=O)NC(C)(C)C(=O)O)cc1`, for which the displacement was determined as 7.8%.

Turning to `CCCC1(O)CC(c2cc(OC)ccc2OC)NC(c2cc(OC)ccc2OC)C1C` (configuration not stated), the displacement was found to be 9.7%.

Consider `CC1(C)CC(=O)C2=C(C1)c1c(ccc3ccccc13)NC2c1ccccc1F` (configuration not stated), for which the displacement is -1.5%.

For `O=C1C(Nc2cccc(Br)c2)=C(N2CCCCC2)C(=O)c2ccccc21`, the displacement was determined as 16.5%.

On to `COc1sc(SC)cc1/C=N/NC(=O)C(NC(=O)c1ccccc1)c1n[nH]c(=O)c2ccccc12` (configuration not stated), for which the displacement was -7.7%.

For `COc1cc(C(=O)N2CCN(c3cccc(Cl)c3)CC2)c([N+](=O)[O-])cc1OC`, the displacement is 15.2%.

On to `CC(=O)Nc1ccc(Sc2ccccc2[N+](=O)[O-])cc1C`, for which the displacement is -18.2%.

`O=[N+]([O-])c1ccc(N2CCOCC2)cc1NCCCN1CCOCC1`: the displacement is -14.2%.

Consider `CCOc1cc(/C=N/NC(=O)CSc2nnc(-c3ccccc3)n2-c2ccccc2)ccc1O`, for which the displacement is -1.7%.

On to `CC(=O)CC(=O)NC(C)c1ccccc1` (configuration not stated), for which the displacement is 10.1%.

`Cc1cc(=O)[nH]c(SCCc2ccccc2)n1`: the displacement came out at 11.6%.

In the case of `COc1ccccc1NC(=O)c1ccccc1N(Cc1ccccc1)S(=O)(=O)c1ccccc1`, the displacement amounted to 0.6%.

As for `CCOC(=O)c1ccc(NC(=O)CN(c2cc(OC)ccc2OC)S(C)(=O)=O)cc1`, the displacement was found to be 5.5%.

Take `O=C1NN(c2cccc(Cl)c2)C(=O)/C1=C\c1ccccc1O`: the displacement is -6.5%.

On to `Cc1ccc(C(=O)Nc2ccc(N3CCOCC3)c(Cl)c2)cc1C`, for which the displacement came out at 7.1%.

Consider `O=C(NC(NC(=S)Nc1ccccc1I)C(Cl)(Cl)Cl)c1ccccc1F` (configuration not stated), for which the displacement was determined as 14.2%.

For the molecule `O=C(COC(=O)c1ccccc1C(F)(F)F)c1ccc(Cl)cc1`, the displacement is -11.5%.

As to `CCOC(=O)Cc1nnc2c(NC(C)C)nc3nonc3n12`, the displacement amounted to 2.3%.

Turning to `CCCSC1=C(C#N)C(c2ccc(F)cc2)CC(=O)N1` (configuration not stated), the displacement amounted to 3.2%.

As for `CN1C(=O)C(=Cc2c(Cl)cccc2Cl)C(=O)N(C)C1=O`, the displacement was found to be 12.4%.

Consider `Cc1cccc(NC(=O)C(=O)NNC(=O)c2ccccc2C)c1`, for which the displacement was -11.5%.

With `Cc1cc(C=NNC(=O)CC#N)c(C)n1-c1ccc(Cl)c(Cl)c1`, the displacement is -16.6%.

Regarding `C=CCSc1nc2ccccc2c(=O)[nH]1`, the displacement stood at 16.8%.

As to `COc1ccc(CCNC(=O)COc2ccc(C)cc2Br)cc1`, the displacement is -9.2%.

Turning to `O=C1CSC(c2ccc3c(c2)OCO3)N1` (configuration not stated), the displacement is -8.5%.

As for `C/C(=N\NS(=O)(=O)c1ccc(C)cc1)c1cc2ccccc2oc1=O`, the displacement was determined as 6.4%.

For the molecule `COc1ccc2c(C)cc(=O)oc2c1I`, the displacement was -14.5%.

With `CC(=O)NS(=O)(=O)c1ccc(N/C(N)=N\c2nc(C)cc(C)n2)cc1`, the displacement was 5.6%.

As to `Cc1ccsc1/C=N/OC(=O)c1nn(C)cc1Br`, the displacement is -8.1%.

Take `COc1ccc(N/C(=N/S(=O)(=O)c2ccccc2)c2ccccc2)cc1`: the displacement worked out at 10.6%.

On to `Cc1ccc(N2C(=O)/C(=C/N3CCOCC3)c3ccccc3C2=O)cc1`, for which the displacement turned out to be 3.2%.

Consider `CCC(C)NC(=O)CN(c1ccccc1)S(=O)(=O)c1ccccc1[N+](=O)[O-]` (configuration not stated), for which the displacement is -8%.

As to `C/C(=N\N=C1\NC(=O)C(CC(=O)Nc2ccccc2C(F)(F)F)S1)c1ccccc1` (configuration not stated), the displacement turned out to be 9.6%.

For `CCOc1ccc(N(CC(=O)NCc2ccc(OC)cc2)S(=O)(=O)c2ccc(Br)cc2)cc1`, the displacement is -10%.

As to `O=C(/C=C/c1ccccc1)Nc1cccc(Br)c1`, the displacement was -8.7%.

In the case of `O=C(/C=C/c1ccc(Cl)cc1)Nc1ccccc1C(F)(F)F`, the displacement is 8.8%.

For `O=C(c1ccc(Cl)c(Cl)c1)N1CCN(c2ccc([N+](=O)[O-])cc2Cl)CC1`, the displacement is -12.8%.

Take `Cc1ccc(C(=O)c2ccc(N3CCN(C(=O)c4cccc(F)c4)CC3)c(F)c2)cc1C`: the displacement worked out at 1.6%.

As to `CN(C)c1ccc(/C=C2/SC(N=Nc3c(O)[nH]c4ccccc34)=NC2=O)cc1`, the displacement was determined as 7.9%.

For the molecule `CCOc1ccccc1NC(=O)CN(c1ccccc1Cl)S(C)(=O)=O`, the displacement is -5.8%.

On to `Cc1ccc(/C=C2/SC(=S)N(CCC(=O)N3c4ccccc4Sc4ccc(Cl)cc43)C2=O)cc1`, for which the displacement was determined as 9.7%.

Take `COc1ccc(S(=O)(=O)N(CC(=O)Nc2ccccc2OC)Cc2ccccc2)cc1`: the displacement was -3.9%.

Regarding `COc1ccc(OC)c(N(CC(=O)NCCc2ccc(OC)c(OC)c2)S(=O)(=O)c2ccc(OC)c(OC)c2)c1`, the displacement worked out at 10%.

With `COc1cc(C=C2C(=O)NC(=O)NC2=O)cc(Br)c1OCc1ccc([N+](=O)[O-])cc1`, the displacement turned out to be 15.4%.

Take `C=C1CSc2nc(=O)c3c(C)c(C)sc3n21`: the displacement turned out to be 1.7%.

For the molecule `COc1ccc2c(c1)-c1c(ssc1=Nc1ccc(S(N)(=O)=O)cc1)C(C)(C)N2`, the displacement was -14.3%.

Consider `CCOc1ccc(N2C(=O)CC(NCc3ccc(Cl)cc3Cl)C2=O)cc1` (configuration not stated), for which the displacement was -10.6%.

In the case of `CCOC(=O)c1c(NC(=O)c2ccc(Cl)cc2)sc(C(=O)Nc2ccccc2C(F)(F)F)c1C`, the displacement turned out to be 18.7%.

As to `CN1C(=O)NC(=O)/C(=C/c2ccc(-c3ccc(Cl)c(Cl)c3)o2)C1=O`, the displacement was -7.2%.

As to `CC(C)CCNC1=CC(=O)CC(c2ccccc2)C1` (configuration not stated), the displacement was 11.8%.

Consider `CCOC(=O)c1c(NC(=O)COc2ccccc2)sc2c1CCN(C(=O)OCC)C2`, for which the displacement was -23%.

Source of the values: PubChem BioAssay AID1240 (Sanford-Burnham Center for Chemical Genomics, 2008).
